# Experimental data as given in the supplement of paper PMC8728848.
# This is one part of the list.
# Experiments:
# Experiment in all cases: glycan array binding signal (z-score within array); higher = stronger binding
# Conditions in all cases: glycan notation: IUPAC condensed, linker removed
# Fuc(a1-2)Gal = target: Fuc(a1-2)Gal
# How it was run: (§1)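 Columns mapping to the same glycan were averaged after glycan names were converted to IUPAC-condensed notation. The data come from 3228 arrays in the Consortium for Functional Glycomics database, limited to those with an available protein sequence. Binding is reported as a within-array Z-score averaged across arrays of one protein sequence and across linkers.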
# Fuc(a1-2)Gal(b1-3)GalNAc = target: Fuc(a1-2)Gal(b1-3)GalNAc
# How it was run: as §1
# [1] = target: Fuc(a1-2)Gal(b1-3)GalNAc(a1-3)[Fuc(a1-2)]Gal(b1-4)Glc
# How it was run: as §1
# [2] = target: Fuc(a1-2)Gal(b1-3)GalNAc(a1-3)[Fuc(a1-2)]Gal(b1-4)GlcNAc
# How it was run: as §1
# [3] = target: Fuc(a1-2)Gal(b1-3)GalNAc(b1-3)Gal
# How it was run: as §1
# [4] = target: Fuc(a1-2)Gal(b1-3)GalNAc(b1-3)Gal(a1-4)Gal(b1-4)Glc
# How it was run: as §1
# [5] = target: Fuc(a1-2)Gal(b1-3)GalNAc(b1-4)[Neu5Ac(a2-3)]Gal(b1-4)Glc
# How it was run: as §1
# Fuc(a1-2)Gal(b1-3)GlcNAc = target: Fuc(a1-2)Gal(b1-3)GlcNAc
# How it was run: as §1
# [6] = target: Fuc(a1-2)Gal(b1-3)GlcNAc(b1-2)Man(a1-3)[Fuc(a1-2)Gal(b1-3)GlcNAc(b1-2)Man(a1-6)]Man(b1-4)GlcNAc(b1-4)GlcNAc
# How it was run: as §1
# [7] = target: Fuc(a1-2)Gal(b1-3)GlcNAc(b1-2)Man(a1-3)[Fuc(a1-2)Gal(b1-3)GlcNAc(b1-2)Man(a1-6)]Man(b1-4)GlcNAc(b1-4)[Fuc(a1-6)]GlcNAc
# How it was run: as §1
# [8] = target: Fuc(a1-2)Gal(b1-3)GlcNAc(b1-3)Gal(b1-4)Glc
# How it was run: as §1
# [9] = target: Fuc(a1-2)Gal(b1-3)GlcNAc(b1-3)GalNAc
# How it was run: as §1
# [10] = target: Fuc(a1-2)Gal(b1-3)GlcNAc(b1-3)[Fuc(a1-2)Gal(b1-3)GlcNAc(b1-6)]GalNAc
# How it was run: as §1
# [11] = target: Fuc(a1-2)Gal(b1-3)GlcNAc(b1-3)[Gal(b1-4)GlcNAc(b1-6)]Gal(b1-4)Glc
# How it was run: as §1
# [12] = target: Fuc(a1-2)Gal(b1-3)GlcNAc(b1-3)[Neu5Ac(a2-6)Gal(b1-4)GlcNAc(b1-6)]Gal(b1-4)Glc
# How it was run: as §1
# [13] = target: Fuc(a1-2)Gal(b1-3)GlcNAc6S
# How it was run: as §1
# [14] = target: Fuc(a1-2)Gal(b1-3)[Fuc(a1-4)]GlcNAc
# How it was run: as §1
# [15] = target: Fuc(a1-2)Gal(b1-3)[Fuc(a1-4)]GlcNAc(b1-2)Man(a1-3)[Fuc(a1-2)Gal(b1-3)[Fuc(a1-4)]GlcNAc(b1-2)Man(a1-3)]Man(b1-4)GlcNAc(b1-4)GlcNAc
# How it was run: as §1
# [16] = target: Fuc(a1-2)Gal(b1-3)[Fuc(a1-4)]GlcNAc(b1-2)Man(a1-3)[Fuc(a1-2)Gal(b1-3)[Fuc(a1-4)]GlcNAc(b1-2)Man(a1-6)]Man(b1-4)GlcNAc(b1-4)[Fuc(a1-6)]GlcNAc(b1-4)[Fuc(a1-6)]GlcNAc
# How it was run: as §1
# [17] = target: Fuc(a1-2)Gal(b1-3)[Fuc(a1-4)]GlcNAc(b1-3)[Fuc(a1-3)[Gal(b1-4)]GlcNAc(b1-6)]Gal(b1-4)Glc
# How it was run: as §1
# [18] = target: Fuc(a1-2)Gal(b1-3)[Fuc(a1-4)]GlcNAc(b1-3)[Gal(b1-4)GlcNAc(b1-6)]Gal(b1-4)Glc
# How it was run: as §1
# [19] = target: Fuc(a1-2)Gal(b1-4)Fuc(a1-3)]GlcNAc(b1-2)Man(a1-3)[Fuc(a1-2)Gal(b1-4)[Fuc(a1-3)]GlcNAc(b1-2)Man(a1-6)]Man(b1-4)GlcNAc(b1-4)GlcNAc
# How it was run: as §1
# Fuc(a1-2)Gal(b1-4)Glc = target: Fuc(a1-2)Gal(b1-4)Glc
# How it was run: as §1
# Fuc(a1-2)Gal(b1-4)Glc6S = target: Fuc(a1-2)Gal(b1-4)Glc6S
# How it was run: as §1
# Fuc(a1-2)Gal(b1-4)GlcNAc = target: Fuc(a1-2)Gal(b1-4)GlcNAc
# How it was run: as §1
# [20] = target: Fuc(a1-2)Gal(b1-4)GlcNAc(b1-2)Man
# How it was run: as §1
# [21] = target: Fuc(a1-2)Gal(b1-4)GlcNAc(b1-2)Man(a1-3)[Fuc(a1-2)Gal(b1-4)GlcNAc(b1-2)Man(a1-6)]Man(b1-4)GlcNAc(b1-4)GlcNAc
# How it was run: as §1
# [22] = target: Fuc(a1-2)Gal(b1-4)GlcNAc(b1-2)Man(a1-3)[Fuc(a1-2)Gal(b1-4)GlcNAc(b1-2)Man(a1-6)]Man(b1-4)GlcNAc(b1-4)[Fuc(a1-6)]GlcNAc
# How it was run: as §1
# [23] = target: Fuc(a1-2)Gal(b1-4)GlcNAc(b1-2)[Fuc(a1-2)Gal(b1-4)GlcNAc(b1-4)]Man(a1-3)[Fuc(a1-2)Gal(b1-4)GlcNAc(b1-2)Man(a1-6)]Man(b1-4)GlcNAc(b1-4)GlcNAc
# How it was run: as §1
# [24] = target: Fuc(a1-2)Gal(b1-4)GlcNAc(b1-3)Gal(b1-4)GlcNAc
# How it was run: as §1
binder,measurement,setting,value
CTAEGIKKFEGDGYELFKDNFPAGEKFDNDDTNDQFYTVIF [MUB40 (Lactobacillus reuteri)],glycan array binding signal (z-score),Fuc(a1-2)Gal,-0.147
same,glycan array binding signal (z-score),Fuc(a1-2)Gal(b1-3)GalNAc,1.56
same,glycan array binding signal (z-score),[1],-0.41
same,glycan array binding signal (z-score),[2],-0.399
same,glycan array binding signal (z-score),[3],-0.251
same,glycan array binding signal (z-score),[4],-0.246
same,glycan array binding signal (z-score),[5],-0.225
same,glycan array binding signal (z-score),Fuc(a1-2)Gal(b1-3)GlcNAc,-0.279
same,glycan array binding signal (z-score),[6],-0.598
same,glycan array binding signal (z-score),[7],-0.613
same,glycan array binding signal (z-score),[8],-0.164
same,glycan array binding signal (z-score),[9],-0.314
same,glycan array binding signal (z-score),[10],-0.391
same,glycan array binding signal (z-score),[11],0.224
same,glycan array binding signal (z-score),[12],0.536
same,glycan array binding signal (z-score),[13],0.088
same,glycan array binding signal (z-score),[14],-0.273
same,glycan array binding signal (z-score),[15],0.536
same,glycan array binding signal (z-score),[16],0.016
same,glycan array binding signal (z-score),[17],-0.461
same,glycan array binding signal (z-score),[18],0.363
same,glycan array binding signal (z-score),[19],0.028
same,glycan array binding signal (z-score),Fuc(a1-2)Gal(b1-4)Glc,-0.432
same,glycan array binding signal (z-score),Fuc(a1-2)Gal(b1-4)Glc6S,-0.486
same,glycan array binding signal (z-score),Fuc(a1-2)Gal(b1-4)GlcNAc,-0.562
same,glycan array binding signal (z-score),[20],-0.45
same,glycan array binding signal (z-score),[21],-0.205
same,glycan array binding signal (z-score),[22],-0.186
same,glycan array binding signal (z-score),[23],-0.014
same,glycan array binding signal (z-score),[24],-0.145
